Laboratory results taken from the RNAGym collection of RNA variant scans (doi:10.1073/pnas.2313332121).
Variants at the background level are over-represented here.

B1: TPR 5TU (parent)
chain: GGAUCUUCUCGAUCUAACAAAAAAGACAAAUCUGCCACAAAGCUUGAGAGCAUCUUCGGAUGCAGAGGCGGCAGCCUUCGGUGGCGCGAUAGCGCCAACGUUCUCAACUAUGACACGCAAAACGCGUGCUCCGUUGAAUGGAGUUUAUCAUG

Variants of: B1
Assay: polymerase ribozyme fitness, log enrichment relative to wild type (log ratio); higher = more active; in vitro selection for triplet polymerase activity
Method in brief: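 Fitness compares each genotype's enrichment to that of the wild type on a logarithmic scale, averaging replicates with inverse-variance weights. The logarithm is base 2. Enrichment came from Illumina sequencing of input and output libraries after one triplicate round of in vitro selection, which included frozen incubation at −7 °C, of PCR-built, transcribed mutant libraries of each subunit of a heterodimeric triplet polymerase ribozyme. Only genotypes with ≥10 input reads and ≥1 read per output were kept.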

Polymerase ribozyme fitness (log ratio), -0.573:
G46C C96U A98U A106G

Polymerase ribozyme fitness (log ratio), -3.68:
G46A G84A A119C G136A A150G

Polymerase ribozyme fitness (log ratio), -1.3:
A47C C57A C93U

Polymerase ribozyme fitness (log ratio), -2.89:
G48A G86U C95U C123A

Polymerase ribozyme fitness (log ratio), -0.959:
U45C A119C

Polymerase ribozyme fitness (log ratio), ≤ -4.2:
U44G G59U C103A C131G
U44G C87U C96A
A47G C57U C85G G88C C93U
U45G A52G G84U G86U U145G
G46U C72A U90G A97G G100A U104A A107G G124C
U45A G80C C87A A91U A142C
U45G G46C G70A U109C U151C
U45A C93U A98G
G48C C51U G84C U127C C132U
U44G C93A A121U G141A
U44G C54U C85G G117U A122U
U45A A47U C79U C116A U151A
U45A U77G G84A A115U A138C
A47C C57U G67C C69A A91U C149U
U45G A91U A107C
A47U C87G U104G A122C G128A
G46C C51G A52U U78G C93G C105G A110C U148G U151C
G46C G59A U82A C85G A110C A113U G126U G128A
G48A G50A C54A C93G U104A
A47U U56C C69G G84A A113U C123U
U45A A52C U53G G70C G133U G141A
A47C C87A A120U C125A
G48C A91G G141U
G48C G84U C103G C108U U135C
A47C A66U C76A U77G A110C A115G
G48C G59C U102G G143U U144G
G48A U55A U56G G65C G136A U139C G141C
U45A U102C C105U A119C G143A
U45C A66C G92U U104G
G48C C76A U90G U130G
G46U C85U G92A U101A G117A
G48A U55A A120G G141U A150U
A47C G48A U61A A98U C123A U139A U144G U148A
G48C A73U U135G
G48A C108G U134A
U44G C85G G117U G140C G152C
G46C G59A G67C G80A G83U A147U
G46A U130A
A47C U61G G65C C76A C87U U134G G141U A142U
U45G C51A C57A C72G A113G C114G U130G G133C
U45A C63A A119U
G46C G68A U101G G117U
U44G G65A A66C A91G
G48C C51A C93U
U45C G94U C96G C132U
A47U G70C G84U C105U A120U
A47G U78A G81U G86C U127G A138C
A47G C108U G140U
G46A C63G G67C C85U
U45A U82A A106G A122G U148G
G46C C54U A66G G94A C95A G143A
G48C G86A C96U C105G C108G U148A
U45A U53A C57A C79G G83C C85U U139G U144A
G48A A52G G74A A91G C93A G143A
G46A C85A A91U G140C
G48C A49C C103A
G46C A66C C85U C93G C118U
G48A C57A U127A A142G G143A
U45G G136C U139A
U45A G50C U53A U56G C108G
G46U A52C A89U G94A G133C
A47G C85A G100A A120C G133U
A47C U53A G71A G94A
A47U C79A C95A C103G G143C
G46U U55A U61G G86C A89G A91G C93U U127C G128A A142C
G48A A60U A73U C96G A119U
U45A G58C C96A U127G
A47G G71U A98G C99G U102G
U45A C87U A115U C125U
G48C C87A C105U U144A
G46U A47G A66C C76A A91U C116G
U45A A52C C75A C87A U135G U148G
G48A A52U C75U A91G
G46C G48C C85G U135A
G46C G50C C57U C76A G84A C125G
A47G C69A G84C G100A A147C
A47G C54A U61G C72U G94C C99U U102G
G48C G59C G68A A91G G100A
G46U C87G A89G C95G C123G U130A
A47C U56A C87A C93G A121U C132G G143A U144C
U45A G48C A52G U53C C76G A91G A97U C99G U135A
A47C C57A C79U A150G
U45G C54G G71U G84C G100A C125A
A47U A66G G67A G86C C95G C96G G124U
U45A C51A G84A
U45A C85A A119U
G48C G50U G58U G83C C95G U101G G128U
U45A G88C A113C U134A
A47U A49C G50A C51A G67C C95U G133U A150G
U45A A52C G71A C99A G133U U145G
G46C G50U A52C A60U G80C C95U A150G
U45A U111G G133C
G48A A49C C51U C103G A110U
A47G G50C C57A C72U G81A A91C A97U U127G U134G G152C
U45A A66U G71A
A47C G62A G70A U82A C85U G86A G152C
G48A C57G A60G C63A C99G
A47C C103G A113C A137G
G46C U55A C76U A89C U104A
A47C C57A C93U U148G
G46A G67A G84U A97G C99U C116U
U45A G67C U90C G94C C114U A119U A138C G140U G141C
G46U G86U G140C U148A
A47U G71A C87U G140A U148G
G46A U53A G59A A66C U90C A91U C108G G133C
A47G A52U G68U C79A C93U C99A G141C A142G G143U
A47C C87A A91G A98U C108U A137U
U44G C57U C87A A91U C118U A138C U144C U146C G152A
A47C G59C U102G U145A
U44G G50C U55G G71U G83U A91C A122U A150G
A47G A52G C57U G80A U135G A138G
G46C U111C
U45A C57G G71A C85U G94C A122U
G46A U56G A91G U148A
A47G U56A C87A G133U
G46C A64G G88C C99G
G46A C63U G86A A91U U101G A106U
G46A C85G A106C C125A
A47G U82G G86U A91U A98C U139C
A47U C54G A60G G92A U101A U109G C114U G128C C129U A147U U148G
A47G G84A G88U A98U A106U C114U G136U U148A
G46A U61A C96G U102G C116A A137G
G46A A60C G67C U77G C79A C93G A113C
A47C A52U G68C C93A G124A
U45G U101G C114A
A47G G88A C118U U127G U139A U145G
G48A C76A G94C A106G U127A G141C
A47C A60G A113C G126A A142C
G46C C85U G88C G140C
U45A U56A U139A
A47U G83A U102C G117A C131G A142G G152C
A47C G48A U53A A73C U104G A120G
G46U C57G G70C U78G C87U G88U G143A U144A
A47G U53G C93G U111C A137C U146G
G48A G59U G94A C114A C125A
G46A U55G C79A C85G A97U
U45A U82G C129A U139A U145G
A47C C93A A106U U109G
U45A G59U G74U A121G G141A
G48A G59A G86A U104G A110U
G46A C96U G141A G143U

Polymerase ribozyme fitness (log ratio), -0.414:
A47G C51U C87U

Polymerase ribozyme fitness (log ratio), -3.84:
A47U U56A C87G A115C G141A

Polymerase ribozyme fitness (log ratio), -3.32:
G48A C57A G92A

Polymerase ribozyme fitness (log ratio), -2.94:
U45A A142G

Polymerase ribozyme fitness (log ratio), -0.452:
G48A G59A

Polymerase ribozyme fitness (log ratio), -2.69:
G48C U53C C87U U145C

Polymerase ribozyme fitness (log ratio), -2.84:
G46A U55A G58C G84C

Polymerase ribozyme fitness (log ratio), -2.29:
G46U G83U

Polymerase ribozyme fitness (log ratio), -1.48:
U45A G58A

Polymerase ribozyme fitness (log ratio), -3.28:
A47U G50A G84U A98U

Polymerase ribozyme fitness (log ratio), -1.01:
A47C G83U

Polymerase ribozyme fitness (log ratio), -1.05:
G48C C54U G58C C87U C123U

Polymerase ribozyme fitness (log ratio), 0.0498:
A47C C54U U55A U101C

Polymerase ribozyme fitness (log ratio), -2.54:
A47C G94A

Polymerase ribozyme fitness (log ratio), -0.809:
A47C A49G

Polymerase ribozyme fitness (log ratio), -4.11:
G48C G70A C75G C87G C93G G140A G152A

Polymerase ribozyme fitness (log ratio), -1.64:
A47C G86A C149U

Polymerase ribozyme fitness (log ratio), -3.18:
U45A C63U A121C

Polymerase ribozyme fitness (log ratio), -0.375:
A47G U53A

Polymerase ribozyme fitness (log ratio), -1.21:
G46A C93U

Polymerase ribozyme fitness (log ratio), -3.03:
G48C G50A U55A
